# Experimental data: PMC6451091
# The other results are listed elsewhere or left out. For part of these data: At the low end of the ranking the order means little. For part of these data: The protein was read in a cell extract, so binding may be indirect.
# Experiments:
# Details in all cases: 20 mM HEPES pH 7.9, 100 mM NaCl, 1 mM DTT, 0.2 mg/mL BSA, 0.02% Triton X-100, 2% milk, 0.4 mg/mL salmon testes DNA; 1 h; temperature not stated; high values mean tight binding; double strand, one strand shown; sequences stand for … in GCCTAGCAC…GTGCTAGGTCTTGATTCGCTTGACGCTGCTG
# PU.1 (IVT) = PU.1 (IVT) (UniProt P17947); assay: protein-binding microarray (PBM)
# [1] = biological target: PU.1 (endogenous, THP-1 nuclear extract) (UniProt P17947); assay: nuclear extract protein-binding microarray (nextPBM)
# [2] = biological target: T1, FLI1 (endogenous, THP-1 nuclear extract) (UniProt Q01543); assay: as above
# T1 sequence: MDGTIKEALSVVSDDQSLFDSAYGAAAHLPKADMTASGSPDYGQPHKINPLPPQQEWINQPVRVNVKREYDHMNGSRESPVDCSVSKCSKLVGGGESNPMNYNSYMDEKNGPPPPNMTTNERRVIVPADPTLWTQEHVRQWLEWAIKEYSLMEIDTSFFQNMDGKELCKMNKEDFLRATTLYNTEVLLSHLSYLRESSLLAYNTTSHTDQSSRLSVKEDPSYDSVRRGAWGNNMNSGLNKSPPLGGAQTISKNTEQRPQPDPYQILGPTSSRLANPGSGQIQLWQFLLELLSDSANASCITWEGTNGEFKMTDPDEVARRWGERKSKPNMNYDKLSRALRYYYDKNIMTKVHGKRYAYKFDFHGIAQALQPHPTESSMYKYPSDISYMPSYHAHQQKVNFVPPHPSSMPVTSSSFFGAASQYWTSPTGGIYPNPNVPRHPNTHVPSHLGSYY
Sequence,binding signal (PU.1 (IVT)),binding signal [1],binding signal [2]
CAAAAAGGGAAGTAGATGCT,6.67 z-score,6.72 z-score,2.61 z-score
GGAAAGAGGAAATGGGGAAT,4.72 z-score,5.01 z-score,2.98 z-score
GAGATAGGGAAGTGGTAAAT,4.55 z-score,4.7 z-score,1.78 z-score
GAGAAGAGGAAGTGAGATCT,6.45 z-score,6.78 z-score,3.36 z-score
TATTAGAGGAAGTGGCAGAG,4.62 z-score,5.39 z-score,2.77 z-score
ATTTAGAGGAACTGGGCTTG,2.86 z-score,3.08 z-score,0.878 z-score
AGTAAGAGGAACTGAATCAC,4.29 z-score,4.09 z-score,1.38 z-score
AGAAACAGGAACTGAGGCCA,4.78 z-score,5.67 z-score,2.56 z-score
GGAAAGAGGAAGTACTGTAG,7.98 z-score,7.47 z-score,3.81 z-score
TCAGGGAGGAAGTGGGGTAT,3.46 z-score,3.45 z-score,2.86 z-score
GGTTTAAGGAAGTGATAGTA,5.37 z-score,5.62 z-score,2.38 z-score
GAAAACAGGAAGTGAGATGC,7.75 z-score,7.43 z-score,5.48 z-score
GAGAAGAGGAAGTCAAATAA,5.64 z-score,6.36 z-score,3.2 z-score
TGAGAGAGGAAGTAACTTAA,5.44 z-score,5.34 z-score,2.95 z-score
GAAAAAAGGAAGTGAGAACT,6.26 z-score,6.41 z-score,3.09 z-score
GTTAAGAGGAAGTCCTCTGT,4.91 z-score,5.7 z-score,2.82 z-score
GGATTAAGGAAGTGGAACTA,5.65 z-score,6.2 z-score,2.6 z-score
CTAAAAAGGAAGTGTCTATA,3.85 z-score,3.42 z-score,2.59 z-score
GTGAAGAGGAAGTACAAAGA,4.94 z-score,5.84 z-score,2.74 z-score

Sequence,binding signal (PU.1 (IVT)),binding signal [1],binding signal [2]
TCAAAGAGGAAGTGTAAGAC,6.44 z-score,6.56 z-score,3.36 z-score
CAATTGAGGAACTGATGCGG,4.94 z-score,5.5 z-score,1.46 z-score
ATAAAAAGGAACTGGCTAGA,2.46 z-score,2.5 z-score,0.731 z-score
CCCAAAAGGAAGTGAGATAT,2.34 z-score,2.42 z-score,2.53 z-score
TGATAGAGGAAGTGCAACCA,4.92 z-score,5.94 z-score,2.88 z-score
AAAAACAGGAAGTGGAAAAA,8.21 z-score,6.94 z-score,5.12 z-score
AACAAGAGGAAGTGGCTTTC,5.51 z-score,6.14 z-score,3.74 z-score
GCAAAAGGGAAGTGAAGGGT,4.3 z-score,4.99 z-score,2.16 z-score
CAAAGAAGGAAGTCCCAAGG,3.14 z-score,3.88 z-score,1.67 z-score
TGAGGAAGGAAGTGGCTGTT,2.51 z-score,2.57 z-score,2.39 z-score
AAAATGAGGAAATGAGGTTT,5.58 z-score,5.85 z-score,2.48 z-score
AAAGGGGGGAAGTGGTTACA,3.41 z-score,3.21 z-score,1.9 z-score
CAAAAGAGGAAGTTGGCAAA,8.72 z-score,7.41 z-score,4.62 z-score
CAAATGAGGAATTGATGCGG,2.8 z-score,2.61 z-score,0.747 z-score
AAAAAGAGGAAGTGCACAAG,8.64 z-score,7.22 z-score,4.26 z-score
TGAAAGAGGAAGTGCAACCC,7.18 z-score,7.2 z-score,3.72 z-score
AATAAGAGGAACTGGCGCAT,4.36 z-score,5.04 z-score,1.27 z-score
GAAAAGGGGAAGTCAATCAG,7.69 z-score,7.37 z-score,3.15 z-score
CAAATGAGGAACTGATCCGG,6.03 z-score,6.44 z-score,2.11 z-score

Sequence,binding signal (PU.1 (IVT)),binding signal [1],binding signal [2]
GAAATGAGGAACAGGATCTG,4.26 z-score,4.84 z-score,1.63 z-score
CTGAAGAGGAACTGAACTTA,3.42 z-score,3.7 z-score,1.54 z-score
GATAACAGGAAGTCCTCTGT,4.94 z-score,5.45 z-score,4.66 z-score
TAAAAGAGGAAGTGAAGAAA,8.27 z-score,7.3 z-score,4.76 z-score
AATAAAAGGAACTGCAGGCA,1.79 z-score,2.19 z-score,0.745 z-score
GAGAAGAGGAACTGAGTAGA,3.96 z-score,4.51 z-score,1.46 z-score
GATAAGAGGAACTACTGTGT,5.02 z-score,5.37 z-score,1.42 z-score
AAAAAAAGGAAGTGCCACTA,6.38 z-score,6.57 z-score,2.97 z-score
GAAAGCAGGAAGTCCCATAG,3.5 z-score,4.25 z-score,3.44 z-score
AAAAGAAGGAACTGGCTAGA,3.16 z-score,3.17 z-score,1.01 z-score
CCTGGGAGGAAGTGGAGAGA,2.99 z-score,3.03 z-score,2.5 z-score
GAAATGAGGAAGTGTGGCTG,7.89 z-score,7.29 z-score,3.48 z-score
AAAAAGCGGAAGTGCAAAAG,8.5 z-score,7.35 z-score,5.08 z-score
GAAAAGAGGAAGTCCAGCAA,8.19 z-score,7.3 z-score,3.33 z-score
GTGAAGAGGAAGTTTTCCTT,5.34 z-score,4.46 z-score,2.82 z-score
CAAAAGAGGAAGTGGTGAAA,8.4 z-score,7.23 z-score,4.12 z-score
AAAATGAGGAAGTAATTCCT,8.66 z-score,7.46 z-score,4.12 z-score
CTTTTGGGGAAGTGGTTTCC,5.19 z-score,5.98 z-score,2.83 z-score
GATAAGAGGAAGCCCTCTGT,2.68 z-score,3.14 z-score,1.53 z-score
